PubChem BioAssay AID1508623 (National Center for Advancing Translational Sciences (NCATS), 2021)
The whole screen tested about 48,000 compounds, of which about 450 (0.94%) were called active. Another 19% or so got no clear call; they are omitted. The call rests on the fitted dose curve; in most records, active means well fitted inhibition curve with a large enough effect; inconclusive means small, poorly fitted or top-dose-only effect; inactive means no such curve, though single readings can be large or run the other way. This is one part of the list.

experiment: Primary qHTS for Identification of Small Molecule Inhibitors of Huntingtin Promoter Activity; details: HEK293 HTT promoter firefly luciferase reporter (activity 0% = vehicle and -100% = no light), 24 h; series mostly up to 57.5 µM; activity change, negative = inhibition: at the top concentration; further: nearly all actives have a fitted effect of over 50% in size
Method in brief: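 Firefly luciferase signal from promoter-reporter HEK293 cells was scaled between vehicle (0%) and zero RLU (-100%). Compounds were tested at final concentrations of up to 57.5 uM over 24 h at 37 degrees C. PTC124 at 50 uM final served as control inhibitor.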

Activity change, negative = inhibition, inactive:
Cc1c(C(=O)N2CCCCC2)c(S(=O)(=O)NCc2ccc(N(C)C)cc2)c(C)n1C 10.3%, Cc1ccc(-c2cc(N)n(-c3ccc(C)cc3)n2)cc1 114%, CC(=O)OC[C@H]1O[C@@](COC(C)=O)(O[C@H]2O[C@H](COC(C)=O)[C@@H](OC(C)=O)[C@H](OC(C)=O)[C@H]2OC(C)=O)[C@@H](OC(C)=O)[C@@H]1OC(C)=O -7.6%, COc1ccccc1CNC(=O)C(C)n1ccc2cc(S(=O)(=O)N3CCCC3)ccc21 (centres undefined) -24.1%, COc1ccc(CNC(=O)c2ccc3nc(CCc4ccccc4)oc3c2)cc1 1.32%, CCOc1ccc(NC(=O)C2CCN(c3nnc(C)c4c(C)n(-c5ccccc5)nc34)CC2)cc1 -8.91%, Cc1ccc(-c2[nH]c3c(c2-c2c(-n4cccc4)n(C)c(=O)[nH]c2=O)c(=O)[nH]c(=O)n3C)cc1 -11%, CCOC(=O)c1c(C)oc2nc(C)nc(N3CCN(c4ccccc4F)CC3)c12 0.143%, Cc1ccc2[nH]cc(S(=O)(=O)c3ccc(C)c(C)c3)c(=O)c2c1 -17.9%, Cc1ccc(F)cc1NC(=O)CCc1c(C)nn(-c2ccc(N3CCOCC3)nn2)c1C -13.6%, CCN(CC)CCNc1ccc(CO)c2sc3ccccc3c(=O)c12 -27.6%, Cc1ccc(/C=C/c2onc(C)c2S(=O)(=O)N2CCC(C(=O)N3CCOc4ccc(C)cc43)CC2)cc1 -32.6%, COc1ccc(NC(=O)CCS(=O)(=O)c2nc(-c3ccc4c(c3)OCO4)cc(C(F)(F)F)n2)cc1 27.5%, CSc1ccc(C2CC(=O)Oc3c2c(=O)n(C)c2ccccc32)cc1 (centres undefined) -16.4%, COc1ccc(-c2cc(C(=O)Oc3ccc(C)cc3)c3cc(C)ccc3n2)cc1 2.78%, CCOc1ccc2nc3cc(N)ccc3c(N)c2c1 -19%, Cc1ccc(-c2nnc(Nc3ccc(OC(F)(F)Cl)cc3)c3ccccc23)cc1S(=O)(=O)NC(C)(C)CO -26.6%, N[C@@H](Cc1ccc(O)cc1)C(=O)O -4% [at 11.5 µM], CCCCn1c(=N)c(S(=O)(=O)c2ccc(C)cc2)cc2c(=O)n3cc(C)ccc3nc21 1.38%, O=C(Nc1ccc(-c2nc3cc(NC(=O)c4ccc(F)cc4)ccc3o2)cc1)c1ccc(F)cc1 45.2%, O=C(COc1ccc(Cl)cc1)N1CCN(Cc2ccc3c(c2)OCO3)CC1 -17.3%, CCc1nn2c(=O)cc(COC(=O)c3ccc(NC(=O)CCc4ccccc4)cc3)nc2s1 -15.4%, O=C(COc1ccccc1)N(Cc1cccnc1)c1nc2c(F)cccc2s1 -12.8%, Nc1ccc(NC(=O)c2cccc(C(=O)Nc3ccc(N)cc3Cl)c2)c(Cl)c1 -20.5%, CCc1nc(SC)ncc1C(=O)N1CCN(c2cc(Cl)ccc2C)CC1 -17.1%, Cc1nn(C(C)C(=O)Nc2ccc(C(C)C)cc2)c(=O)c2c1sc1ccccc12 (centres undefined) -8.26%, CC(NC(=O)C1CCN(S(=O)(=O)c2ccccc2)CC1)c1ccccc1 (centres undefined) -23.1%, COc1cc(/C=C(\C#N)c2nc3ccccc3[nH]2)ccc1OCc1ccc(F)cc1 -24.8%, CCCN(CCC)CCCNC(=O)c1cnn(-c2ccc(F)cc2)c1-n1cccc1 -27.3%, Cc1cccc(-c2nn3c(=O)cc(CN4CCN(C(=O)c5ccccc5Br)CC4)nc3s2)c1 -10.5%, CCCn1c2ccccc2c2cnn(CC(=O)NCC3CCN(Cc4ccc(F)cc4)CC3)c(=O)c21 -9.88%, CN(Cc1cnc2nc(N)nc(N)c2n1)c1ccc(C(=O)N[C@@H](CCC(=O)O)C(=O)O)cc1, COc1ccccc1CNc1nc(-c2ccco2)nn1C(=O)c1cc(OC)c(OC)c(OC)c1 39.5%, Cc1ccccc1CNC(=O)C1=Cc2ccccc2OC1 15.9%, CCC(=O)C1=C(c2ccc(OC)c(OC)c2)N(C(=O)CC)n2c(CC)nnc2S1 -19.8%, Cc1ccc(NC(=O)c2c(NC(=O)Cc3ccccc3)sc3c2CCCC3)cc1 -19.7%, CC(=O)c1cccc(NC(=O)Cn2c(=O)oc3cc(S(=O)(=O)N4CCCC4)ccc32)c1 -32.4%, CC(=O)Nc1ccc(NC(=O)CCSCCc2ccccn2)cc1 -5.91%, CN(C)c1ccc(-c2nnc3n(Cc4ccccc4)c(=O)c4ccccc4n23)cc1 -13.2%, CN(C)c1ccc(CNC(=O)c2ccc(NC(=O)N3CCCCc4ccccc43)cc2)cc1 -10.3%, COc1ccc(-n2c(SCC(=O)Nc3cccc(C)c3C)nc3c([nH]c4ccccc43)c2=O)cc1 -4.48%, Cc1ccc2oc(=O)c3cc(C(=O)N4CCN(c5ccccc5F)CC4)sc3c2c1 2.87%, CCc1ccccc1NC(=O)C1CCN(c2cnccn2)CC1 -15.1%, CC(=O)c1nnn(-c2ccc(C)cc2Cl)c1C -15.3%, CC(=O)c1ccc(Nc2ccc3cc(S(=O)(=O)N4CCCC4)ccc3n2)cc1 0%, O=C(CCn1cnnn1)Nc1cc(C(F)(F)F)cc(C(F)(F)F)c1 -27.4%, COc1cc(NC(=O)CSc2nccn2C)cc(OC)c1OC -25.7%, COc1ccc2c(c1)c1c(c(=O)n(-c3ccc(OC)c(OC)c3)c(=O)n1Cc1ccccc1F)n2C -4.66%, CC(C)CCn1nnc2sc(-c3ccccc3)cc2c1=O 40.4%, CCCCSCCCNC(=O)c1cn(C)c2ccc(S(=O)(=O)N3CCCCCC3)cc2c1=O -11.3% [at 11.5 µM], COc1cc(OC)c(NC(=O)c2nn(-c3ccc(C)cc3)c(=O)c3c2c2ccccc2n3C)cc1Cl -5.9%, O=C(Nc1cccc(C(=O)N2CCN(c3cccc(Cl)c3)CC2)c1)c1nsc2ccccc12 -5.8%, O=C(NCc1ccccc1Cl)c1ccc(Cn2c(SCc3ccccc3)nc3cccnc32)cc1 -24.8%, CCc1ccccc1NC(=O)c1ccc2c(SCC(=O)O)c3c(nc2c1)CCC3 0.396%, Cc1ccccc1Cn1c2ccccc2c2cnn(CC(=O)NCC(C)c3ccccc3)c(=O)c21 (centres undefined) 0%, CSc1ccc(CCNC(=O)C(C)n2nc(C)c3sc4ccccc4c3c2=O)cc1 (centres undefined) -5.41%, CCOc1ccc(C2c3c(oc4ccc(C)cc4c3=O)C(=O)N2CCCN(C)C)cc1 (centres undefined) 11.5%, CCOC(=O)C1CCN(C(=O)c2ccc(NC(=O)c3nsc4ccccc34)cc2)CC1 14.1%, Cc1cc(C(=O)NCc2cccc(Br)c2)c2c(C)nn(-c3ccccc3)c2n1 -9.53%
